Measurements published in the supplement of paper PMC10185492.
Some of the results follow. These are enrichments in a pooled selection; single values are uncertain.

Test system: SARS-CoV-2 3CLpro (nsp5)
Experiment: substrate phage enrichment score (protease-eluted vs HEPES control, +1 offset) (ratio); higher = better cleaved substrate
Settings: selection round: 4; protease elution time: 15 min
Protocol: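 Random heptapeptide substrate phage display (M13 pIII fusion, heptapeptide between an N-terminal biotinylated AviTag GLNDIFEAQKIEWHE and pIII; phages immobilised on streptavidin) eluted by cleavage with 50 nM protease in 20 mM HEPES at 37 °C. Selected phages were NGS sequenced, and the enrichment score is (reads in protease sample + 1)/(reads in HEPES blank-selection control + 1).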

Substance | substrate phage enrichment score
AVEEKST | > 28
TDTDGVR | 1.5
SEITTLQ | 218
AHIRTTK | 0.08
GTAAHHH | 0.99
EKCTKLQ | > 95
SPAQSPG | 0.476
SFESLNA | 0.917
SHTRVCP | 6.75
NPAAHHH | 0.926
RYLPGLQ | 3.67
LEQPMPS | 13.5
WYSELKV | 4.5
SYHNPST | 0.294
RELYFQG | 0.438
PCASGMP | > 50
EHTAGTK | 3.1
CRFAGQN | 4.5
RNTTATR | > 22
EIYLHLR | 8
VRYRLEN | 0.571
GIAPPVR | 4.4
RTESHAP | 1.6
DAPNVRQ | 2.2
RSSPSPR | > 23

Substance | substrate phage enrichment score
SSACDRK | 4
SQKMTPP | 6
VSHCENN | 6.86
TQSPTYV | > 35
YHHHHGA | 0.674
KRGNCSQ | 1.2
SIRPDAG | > 31
SKTSCRQ | > 31
AVLGRAQ | 9.67
TNASVIQ | 21
LSNDRGQ | > 41
WPRPALQ | 11
HSAAAHH | 0.517
PQPECGT | 1.13
RTSPTYM | 5.2
SGETHLM | > 30
IQMQGNL | 2.43
GETKLQS | > 37
RCPTPVS | > 37
QLSPNKA | 6.5
RPTCRIQ | 2.91
QRHSNPQ | 1.7
PTCQGGS | > 32
VLRHGQE | 7.36
HPIGTRT | 5

Substance | substrate phage enrichment score
TPTALQS | > 21
SYRERLR | 6.33
ASHQEIT | 0.35
STVRSKE | > 22
NDHDELR | 1.88
YESGVIE | > 34
YKHEPMK | > 34
VQDTGQP | 1.4
PRNPDSK | 0.625
VSVLQSS | 45.5
LPKNMTC | 0.923
QSFLYER | 4.86
SGNARVP | 1.54
SQVKLGD | 2.25
KGTLTPP | > 24
RCPVAVG | 0.392
GTAESNP | 1.71
SNFTSGQ | 1.56
NAAAHHH | 0.714
CLRGPVL | 11
SDFTLPR | 0.222
PTLPILQ | > 31
NTLTNLQ | > 83
SEYPARF | 1.11
WPPLLQA | > 21

Substance | substrate phage enrichment score
AVREHRQ | 0.716
PLSHPLH | > 38
TTHEPTV | 2.67
ARPMGGR | 0.912
NASSLQS | > 87
DLNERDG | 7.17
SEETEYP | 0.0769
SRISPTK | 0.714
VPSTRLQ | > 86
RKCSHIQ | 6.33
HESTSGF | 1.88
ANTTHDR | 1.47
LSKRDRC | 2.17
ANIPPSK | > 80
TDVPRYR | 8.33
RCLPDTV | 3.8
SKRGANG | 4.38
VYRLPHR | 4.42
SAASSRQ | > 66
KRTRTQC | 0.917
DDVNWPD | 1.88
NHYGDGD | 3.5
VATTRMQ | > 31
RHEPQTR | 1.82
ELRLTTR | 2.52

Substance | substrate phage enrichment score
RNSSRTA | 29
KCTAGEK | 4
EVGLPQA | 7.67
WPCALQC | > 330
PLSPHNQ | > 102
SESAQWG | 0.9
GTPMTHF | 1.17
PPKVRLQ | 42.9
GAAVCLQ | 30
WTDRVEC | 6.12
LTHAHGK | 0.13
YCSKSRN | 5.25
EAAAHHH | 1.12
SKYTNLQ | > 31
MKHACQT | > 21
SDLRMKP | > 27
SAAPHQH | 1.54
SCNVTLQ | 0.7
ARNGSPY | 2.43
DTRCVNG | 0.143
VWGTVPG | > 22
TRPKGEK | > 48
RVCSLVL | > 37
APYGPRG | 4.4
MTSYGKE | 3.4

Substance | substrate phage enrichment score
LTTGDDS | 0.765
DPLSDPR | 10
THPEWPW | 1.31
SLSGNPN | > 29
SGQVTLQ | 100
VSERTPH | > 143
VCAAAHH | 0.286
QHHRGRC | 2.67
PTCAFGL | 2.68
LDNSQVI | 0.222
WNQSDSC | 15
KSDASRE | 1.08
ISVTPQQ | > 22
SGCSWAQ | 3
LKLPLLQ | > 23
DASGRAP | > 70
PMSHGLM | 1.36
STTVQMQ | > 58
RLRGPGT | 1.2
SRLQSYQ | > 136
HAKHMTE | 4.75
QEALTCV | 0.722
SRSQRTR | > 55
DAALSTG | 1.78
KAMRGHS | > 21

Substance | substrate phage enrichment score
ETSPKQT | 2.89
VRREEQL | 1.88
SGHTSRD | 3.4
TSMNGQR | 1.64
RENLNPT | > 67
QKNPRLQ | > 22
SRPAELQ | 28.3
HDSWRPI | 3.6
EVEPCLQ | > 30
SAAAHRH | 0.621
FGNALLQ | > 40
PTERCKS | 3.29
FSQAKES | > 22
MQDPSVA | 1.75
SHVNEDG | 0.682
HAAAHHH | 0.742
GLYFQGG | 3.05
TTMQSST | 6.33
LPRCSLC | 6.75
DHSSHKA | 6.89
KRPLNPA | > 42
TTPMSNR | 1.5
VTKSEAQ | > 104
DQQRANY | 1.33
AAAHHHN | 1.59

Substance | substrate phage enrichment score
TEYKVNC | 29
TCVTLQS | > 51
VYFQGGS | 1.57
CYCPNWE | 0.571
NTKRRPP | > 43
CVNGTVR | > 21
CDRESPG | 2.75
PCTLRAR | > 21
STYPVTG | > 42
CSCTHTK | 0.939
ASHKSSL | 25
GTTAAHH | 2.88
SKTSTLQ | > 24
RCLLPRN | > 53
PGVASLQ | > 31
LDAQKKT | 1.31
INATDRR | 0.0833
PEQIESY | > 42
TNQRPEW | 0.0435
DFQGGSA | 0.84
CERRQGD | 1.88
NSSRPHR | 0.1
RSSPSME | 1.18
INHGNKQ | > 22
LHRVSNP | 0.7

Substance | substrate phage enrichment score
EPCVLHG | 10.5
LNNNPGR | 0.341
ITPQENA | > 39
RQNKLKP | > 21
IHQPNWR | 3.44
RFCESVV | 3.36
SAAAYHH | 1.23
EYLMGPS | 0.963
QPAGSAA | > 56
VPRSRIG | 41
RQPSCLH | > 21
LPTNLHR | > 28
CFRSGYG | > 21
VITRPQG | 1
KPYFQGG | 0.6
SADRECE | 3.83
SPHQEEQ | 2.71
HGSTHAV | 1.67
SQKNRGC | > 38
LRCIVLR | > 25
EAVSSMD | > 21
CVLLQSH | > 180
HNPPLTN | 0.211
RKGPMLQ | > 38
SGPGVMA | 0.611

Substance | substrate phage enrichment score
WRPIGKQ | 41.7
QELLLHS | > 27
TQAAHHH | 2.32
QHFQGGS | 0.958
LRMHGLT | 2.57
EPSRNRT | > 155
GGMTPVC | 7.4
HGQHSNR | 0.667
TEQEFFQ | 2.07
ELSEHRQ | > 82
SRRPVTS | > 30
CLTFGRN | > 32
SPKGYAW | > 29
SSHSRLQ | > 84
ELRQGYN | 4.41
GRSTRLQ | 30
KRTSPAR | 2.57
EKSRDQC | 0.132
ISAAAHH | 0.532
PCSYANG | > 21
DLKSMPQ | 23
RCQGRIR | 11
AAVSILH | > 320
TKNTVLQ | > 82
MTGAARD | > 24

Substance | substrate phage enrichment score
VARPSAK | 2.57
STRCMLQ | > 45
GVRHWTT | 1.53
LKSAQLQ | > 35
PLNSESR | 2.47
PAGCAST | 0.758
KAAARLQ | > 101
PRMGCNL | 0.467
QGEIDSH | > 57
EGLIEFH | > 34
YRESSLQ | > 35
KRTCIAD | > 35
LPRESGG | 18.7
APGPEAP | > 21
PASRLPV | > 80
QKKRTPV | > 58
LWPHIII | 0.833
PGVKLGR | 9.4
RTRLQGQ | > 75
RQNLNRN | > 22
ARAPAPP | 2.1
ALSLCPS | > 79
RWREPSR | 22
HTSGQRF | 0.867
GTHHQMT | 10

Substance | substrate phage enrichment score
TTHEDDK | 7.25
SQSLKKQ | > 21
PGTSWQD | 1.38
QVSELTG | > 85
ASCAILQ | > 26
VWGEPIT | > 27
GTEPHVR | 3.43
PMHPVQH | 0.0714
RNTSRTT | 1.08
VLNVQTG | 1.46
FAEPRQG | > 33
RWSGTEI | 0.833
THGHATA | 2.38
VSRDNHT | > 30
GGNAQSH | 3.1
KRGSAAA | 9.31
AELRCTG | 1.88
NRLKDCS | 0.636
PREREKP | 1.17
IRNTKGC | 1.56
LNDVYVR | 4.4
NAAAMTK | 2
TADTGTR | 6.8
IATPMPD | 0.432
IQIPPTG | 5.71

Substance | substrate phage enrichment score
TPNANNQ | 0.257
HPGETST | 0.6
VTAAHHH | 0.875
RQPERTE | 2.4
SRTEYRQ | > 46
SAAAQNQ | 1.56
NRECRCN | > 24
FQGGSAA | 1.36
RQSFEQR | 2.33
SHKKEKS | 0.472
AKAAHHH | 1.23
RPCQIAV | 4.2
TEHNGTR | > 57
SHVCRHR | > 22
PATILMS | 92.5
TCLQSCV | 66
SGSRSMR | 2.14
SNSNEAA | 0.722
CAAAPHH | 0.794
RGGSAAA | 1.32
VGRPCST | 5.38
KDAQCIP | > 37
PSNDCGT | 0.737
FNEGHAP | > 25
CPLIWQR | > 31

Substance | substrate phage enrichment score
RACRLLR | 2.37
RTQESSQ | > 34
PRSVHLQ | > 282
YQNSASK | > 32
LTADTAV | 4.29
VQPILDR | 3.88
VRNTSKV | 1.26
MTSNKVP | > 21
RATLLQS | > 23
LNTQDSH | 2.82
VGRYNPR | 1.09
LLRPTSG | > 28
SYRYTPR | 0.389
QSSTMPR | 3.62
GHVVPAL | > 36
CNACCAE | 4.36
WPTPYYR | > 28
LSPPKCA | > 37
RQPVSAS | 1.58
VIQTPEC | 1.2
TGVVPRA | 2.09
VKRPDCN | 0.933
YTESKLQ | > 44
GRIILQC | > 39
PDEGTDL | > 30

Substance | substrate phage enrichment score
EAKTPLI | > 22
RCNGPCA | > 41
QDARHCR | > 22
PEHSMLQ | > 220
SLRTQVS | > 30
VTNPSFQ | 4.21
STSKWSQ | > 29
LCFQGGS | 0.636
QPANALK | 2.75
CHVKHRS | > 21
GLRVGFR | 3.29
IRAAHHH | 0.682
KYPTGNP | 0.519
SGHTRCT | 7
NTRWSNP | 5.4
TDCPPGK | 0.907
PHFQGGS | 0.64
